# Test results: publication PMC4336329 (PLoS ONE, 2015)
# The whole screen tested about 310,000 compounds, of which about 14,000 (4.5%) showed an effect of 50% or more. The effect is printed as a negative number. This is one part of the list.
# Molecular target: human ether-à-go-go-related gene (hERG) potassium channel (human, UniProt Q12809)
# Assay: primary screen, population patch clamp on CHO cells stably expressing hERG
# 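Further: peak tail current of the secondary pulse compared with the same well before compound.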
# human ether-à-go-go-related gene (hERG) potassium channel, sequence (Q12809 whole entry, looked up): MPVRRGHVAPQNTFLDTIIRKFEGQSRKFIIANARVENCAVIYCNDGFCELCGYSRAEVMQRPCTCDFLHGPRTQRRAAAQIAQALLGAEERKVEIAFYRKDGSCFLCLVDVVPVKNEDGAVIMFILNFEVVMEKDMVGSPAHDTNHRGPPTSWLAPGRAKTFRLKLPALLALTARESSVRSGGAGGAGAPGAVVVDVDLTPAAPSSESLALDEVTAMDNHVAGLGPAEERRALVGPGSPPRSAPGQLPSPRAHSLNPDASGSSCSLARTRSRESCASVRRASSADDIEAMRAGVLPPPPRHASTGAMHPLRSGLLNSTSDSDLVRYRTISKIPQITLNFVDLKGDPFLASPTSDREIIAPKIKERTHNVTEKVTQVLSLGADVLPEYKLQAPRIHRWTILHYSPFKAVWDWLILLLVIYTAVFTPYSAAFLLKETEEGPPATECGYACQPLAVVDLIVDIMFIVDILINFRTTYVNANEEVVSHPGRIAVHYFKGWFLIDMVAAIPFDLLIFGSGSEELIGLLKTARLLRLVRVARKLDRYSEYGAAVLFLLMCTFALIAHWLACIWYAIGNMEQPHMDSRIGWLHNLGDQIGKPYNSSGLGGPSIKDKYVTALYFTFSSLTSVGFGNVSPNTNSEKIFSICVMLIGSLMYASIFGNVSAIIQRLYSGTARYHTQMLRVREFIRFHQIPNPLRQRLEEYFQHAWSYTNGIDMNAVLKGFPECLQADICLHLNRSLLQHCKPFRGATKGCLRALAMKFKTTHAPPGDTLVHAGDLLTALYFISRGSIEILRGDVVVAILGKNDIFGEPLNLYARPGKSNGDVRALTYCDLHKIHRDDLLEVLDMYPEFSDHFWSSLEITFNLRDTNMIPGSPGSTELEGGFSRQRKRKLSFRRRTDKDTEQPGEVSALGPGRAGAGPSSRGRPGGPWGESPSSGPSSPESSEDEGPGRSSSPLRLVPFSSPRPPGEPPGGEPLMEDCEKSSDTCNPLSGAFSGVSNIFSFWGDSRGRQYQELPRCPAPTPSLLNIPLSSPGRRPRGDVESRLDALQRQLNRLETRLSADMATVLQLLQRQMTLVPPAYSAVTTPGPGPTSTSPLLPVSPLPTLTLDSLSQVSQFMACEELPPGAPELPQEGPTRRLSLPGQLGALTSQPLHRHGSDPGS
row,Structure (SMILES),"hERG current change (%, negative = inhibition) at 10uM"
1,O=C(O)CCSCC(=O)Nc1c(C(=O)C2CC2)oc2ccccc12,2.37%
2,COCCC(=O)N1CCC(Oc2ccc(C(=O)NC3Cc4ccccc4C3)cc2)CC1,-8.88%
3,CC(=O)c1c(C(C)=O)c(C)n(C2CCCCC2)c1C,2.97%
4,Cc1ccc(N=Nc2ccc(O)c3ncccc23)cc1C,0.551%
5,CC(C)C(C)NC(=O)COC(=O)/C=C/c1ccc(S(=O)(=O)N2CCc3ccccc32)cc1 (stereo not drawn),23.2%
6,O=C(Nc1ccc2nsnc2c1)NC1CCCCC1,-8.28%
7,COc1cccc(OCCn2cc(C(=O)c3ccco3)c3ccccc32)c1,20.1%
8,O=c1[nH]c2ccc(S(=O)(=O)Nc3ccc(Br)cc3)cc2[nH]1,19.3%
9,COc1ccc2cc(CN(Cc3ccco3)C(c3nnnn3C3CCCCC3)C(C)C)c(=O)[nH]c2c1 (stereo not drawn),0.199%
10,Cc1cccc(C)c1Nc1nnc(SC/C(O)=C(\C#N)c2nc3ccccc3[nH]2)s1,21.3%
11,Cc1occc1C(=O)NCCCCNC(=O)c1ccoc1C,-11.9%
12,CCOCCCn1c(SCC(=O)/C(C#N)=C(\C)N)nc2ccccc2c1=O,19.6%
13,COc1ccc(/C=N/NC(=O)C2c3ccccc3Oc3ccccc32)c(OC)c1,16%
14,O=C(Oc1cccc(NC2=NS(=O)(=O)c3ccccc32)c1)c1cccnc1,19.9%
15,O=C(CCCn1c(SCC(=O)NC2CCCCC2)nc2ccccc2c1=O)NCC1CCCO1 (stereo not drawn),-61.5%
16,Cc1cc(S(=O)(=O)N2CCCCC2CCNC(=O)C(=O)NCC2CCCO2)ccc1F (stereo not drawn),-39.3%
17,Cn1c(=O)c2c(nc(NCCO)n2C)n(C)c1=O,15.9%
18,COc1ccc(Br)c(C(=O)N2CCN(S(=O)(=O)/C=C/c3ccccc3)CC2)c1,-58.8%
19,O=C(c1cn(Cc2ccccc2)c2ccccc12)N1CCCCC1,-45%
20,CC(C(=O)Nc1ccccc1-c1ccccc1)N(C)Cc1nc2ccccc2c(=O)[nH]1 (stereo not drawn),-12.5%
21,CCCCNC(=O)C(=O)NCCCn1ccnc1,-10.2%
22,COc1ccc(C(CNC(=O)c2ccc3c(c2)OCCO3)N(C)C)cc1 (stereo not drawn),11.3%
23,COc1cccc(OCC(O)CNC(=O)c2oc3ccc(C)cc3c2C)c1 (stereo not drawn),-1.46%
24,Cc1ccc(NC(=O)CN(C)C(=O)COc2ncnc3ccc(Br)cc23)cc1,11.4%
